Substitutions are numbered along the chain they refer to; changes in the protein carry UniProt numbers. This is one part of the list.
T1: RBFOX1 RRM RbFoxmut (Fox-RRM*) (Homo sapiens, UniProt Q9NWB1 109-208, R118D;E147R;N151S;E152T)
T1 sequence: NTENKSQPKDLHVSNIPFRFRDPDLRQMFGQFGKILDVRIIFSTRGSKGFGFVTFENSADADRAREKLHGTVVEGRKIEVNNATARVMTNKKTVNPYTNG

B1: GGCGCCC (DNA:RNA)
RNA: GGGAGACCGGAAUUCAGAUUGUCCGGCGCCCUUAAAUCCCGUCGUAGCCACCA
DNA 1: CAATCTGAATTCCGGTCTCCC
DNA 2: TGGTGGCTACGACGGGATT
B2: UGAUCGU (DNA:RNA)
RNA: B1 RNA with G25U, C27A, G28U, C30G, C31U
DNA 1: CAATCTGAATTCCGGTCTCCC
DNA 2: TGGTGGCTACGACGGGATT
B3: AGUAUGU (DNA:RNA)
RNA: B1 RNA with G25A, C27U, G28A, C29U, C30G, C31U
DNA 1: CAATCTGAATTCCGGTCTCCC
DNA 2: TGGTGGCTACGACGGGATT
B4: UUGUGUG (DNA:RNA)
RNA: GGGAGACCGGAAUUCAGAUUGUCCUUGUGUGUUAAAUCCCGUCGUAGCCACCA
DNA 1: CAATCTGAATTCCGGTCTCCC
DNA 2: TGGTGGCTACGACGGGATT
B5: GUGAUCU (DNA:RNA)
RNA: B1 RNA with G26U, C27G, G28A, C29U, C31U
DNA 1: CAATCTGAATTCCGGTCTCCC
DNA 2: TGGTGGCTACGACGGGATT
B6: GCAGGCA (DNA:RNA)
RNA: B1 RNA with G26C, C27A, C29G, C31A
DNA 1: CAATCTGAATTCCGGTCTCCC
DNA 2: TGGTGGCTACGACGGGATT
B7: CUGUAUA (DNA:RNA)
RNA: B4 RNA with U25C, G29A, G31A
DNA 1: CAATCTGAATTCCGGTCTCCC
DNA 2: TGGTGGCTACGACGGGATT
B8: UGGGAGA (DNA:RNA)
RNA: B1 RNA with G25U, C27G, C29A, C30G, C31A
DNA 1: CAATCTGAATTCCGGTCTCCC
DNA 2: TGGTGGCTACGACGGGATT
B9: AUCGGAA (DNA:RNA)
RNA: B1 RNA with G25A, G26U, C29G, C30A, C31A
DNA 1: CAATCTGAATTCCGGTCTCCC
DNA 2: TGGTGGCTACGACGGGATT
B10: UAGCUGG (DNA:RNA)
RNA: B4 RNA with U26A, U28C, G29U, U30G
DNA 1: CAATCTGAATTCCGGTCTCCC
DNA 2: TGGTGGCTACGACGGGATT
B11: AUUUCAC (DNA:RNA)
RNA: B1 RNA with G25A, G26U, C27U, G28U, C30A
DNA 1: CAATCTGAATTCCGGTCTCCC
DNA 2: TGGTGGCTACGACGGGATT
B12: CUCGGCG (DNA:RNA)
RNA: B1 RNA with G25C, G26U, C29G, C31G
DNA 1: CAATCTGAATTCCGGTCTCCC
DNA 2: TGGTGGCTACGACGGGATT
B13: AGCUGUC (DNA:RNA)
RNA: B1 RNA with G25A, G28U, C29G, C30U
DNA 1: CAATCTGAATTCCGGTCTCCC
DNA 2: TGGTGGCTACGACGGGATT
B14: CGCGAUG (DNA:RNA)
RNA: B1 RNA with G25C, C29A, C30U, C31G
DNA 1: CAATCTGAATTCCGGTCTCCC
DNA 2: TGGTGGCTACGACGGGATT
B15: CGGUUUG (DNA:RNA)
RNA: B4 RNA with U25C, U26G, G29U
DNA 1: CAATCTGAATTCCGGTCTCCC
DNA 2: TGGTGGCTACGACGGGATT
B16: CGAUAAU (DNA:RNA)
RNA: B1 RNA with G25C, C27A, G28U, C29A, C30A, C31U
DNA 1: CAATCTGAATTCCGGTCTCCC
DNA 2: TGGTGGCTACGACGGGATT
B17: UCUGAAU (DNA:RNA)
RNA: B1 RNA with G25U, G26C, C27U, C29A, C30A, C31U
DNA 1: CAATCTGAATTCCGGTCTCCC
DNA 2: TGGTGGCTACGACGGGATT
B18: GCGGACA (DNA:RNA)
RNA: B1 RNA with G26C, C27G, C29A, C31A
DNA 1: CAATCTGAATTCCGGTCTCCC
DNA 2: TGGTGGCTACGACGGGATT
B19: UGUCACG (DNA:RNA)
RNA: B1 RNA with G25U, C27U, G28C, C29A, C31G
DNA 1: CAATCTGAATTCCGGTCTCCC
DNA 2: TGGTGGCTACGACGGGATT
B20: GAGACCG (DNA:RNA)
RNA: B1 RNA with G26A, C27G, G28A, C31G
DNA 1: CAATCTGAATTCCGGTCTCCC
DNA 2: TGGTGGCTACGACGGGATT
B21: UGCAGCU (DNA:RNA)
RNA: B1 RNA with G25U, G28A, C29G, C31U
DNA 1: CAATCTGAATTCCGGTCTCCC
DNA 2: TGGTGGCTACGACGGGATT
B22: AAGUCAA (DNA:RNA)
RNA: B4 RNA with U25A, U26A, G29C, U30A, G31A
DNA 1: CAATCTGAATTCCGGTCTCCC
DNA 2: TGGTGGCTACGACGGGATT
B23: AAGGAUG (DNA:RNA)
RNA: B4 RNA with U25A, U26A, U28G, G29A
DNA 1: CAATCTGAATTCCGGTCTCCC
DNA 2: TGGTGGCTACGACGGGATT
B24: GUCAUUG (DNA:RNA)
RNA: B4 RNA with U25G, G27C, U28A, G29U
DNA 1: CAATCTGAATTCCGGTCTCCC
DNA 2: TGGTGGCTACGACGGGATT
B25: CUAACUC (DNA:RNA)
RNA: B1 RNA with G25C, G26U, C27A, G28A, C30U
DNA 1: CAATCTGAATTCCGGTCTCCC
DNA 2: TGGTGGCTACGACGGGATT
B26: GUACCUG (DNA:RNA)
RNA: B4 RNA with U25G, G27A, U28C, G29C
DNA 1: CAATCTGAATTCCGGTCTCCC
DNA 2: TGGTGGCTACGACGGGATT
B27: CAGGACC (DNA:RNA)
RNA: B1 RNA with G25C, G26A, C27G, C29A
DNA 1: CAATCTGAATTCCGGTCTCCC
DNA 2: TGGTGGCTACGACGGGATT
B28: GUGGACC (DNA:RNA)
RNA: B1 RNA with G26U, C27G, C29A
DNA 1: CAATCTGAATTCCGGTCTCCC
DNA 2: TGGTGGCTACGACGGGATT
B29: GCGAUAG (DNA:RNA)
RNA: B4 RNA with U25G, U26C, U28A, G29U, U30A
DNA 1: CAATCTGAATTCCGGTCTCCC
DNA 2: TGGTGGCTACGACGGGATT
B30: CAAUGGU (DNA:RNA)
RNA: B4 RNA with U25C, U26A, G27A, U30G, G31U
DNA 1: CAATCTGAATTCCGGTCTCCC
DNA 2: TGGTGGCTACGACGGGATT
B31: GUAGACC (DNA:RNA)
RNA: B1 RNA with G26U, C27A, C29A
DNA 1: CAATCTGAATTCCGGTCTCCC
DNA 2: TGGTGGCTACGACGGGATT

biological target: T1, RBFOX1 RRM RbFoxmut (Fox-RRM*); assay: EMSA; HiTS-Eq, 1 nM pool, 10 min; buffer printed only for the single-RNA assays: 10 mM Tris pH 7.5, 150 mM NaCl, 3.4 mM EDTA, 0.001% NP-40, 30 C; conditions: tags: His6 N-terminal (pET28a); label: 5' 32P
Method in brief: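 Purified wild-type or mutant RbFox RRM at increasing concentrations was equilibrated with 1 nM of 5′-radiolabelled RNA carrying 7 randomized nucleotides for 10 min in 50 µL. Unbound RNA was separated by 8% native PAGE and sequenced. Relative association constants came from read-count changes of each RNA species compared with the control reaction, normalised to the cognate motif.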

| Binder | binding signal |
| --- | --- |
| B1 | 0.0838 KA relative to UGCAUGU |
| B2 | 0.169 KA relative to UGCAUGU |
| B3 | 0.351 KA relative to UGCAUGU |
| B4 | 0.491 KA relative to UGCAUGU |
| B5 | 0.0684 KA relative to UGCAUGU |
| B6 | 0.0998 KA relative to UGCAUGU |
| B7 | 0.121 KA relative to UGCAUGU |
| B8 | 0.137 KA relative to UGCAUGU |
| B9 | 0.114 KA relative to UGCAUGU |
| B10 | 0.105 KA relative to UGCAUGU |
| B11 | 0.0956 KA relative to UGCAUGU |
| B12 | 0.118 KA relative to UGCAUGU |
| B13 | 0.2 KA relative to UGCAUGU |
| B14 | 0.16 KA relative to UGCAUGU |
| B15 | 0.633 KA relative to UGCAUGU |
| B16 | 0.0542 KA relative to UGCAUGU |

| Binder | binding signal |
| --- | --- |
| B17 | 0.0664 KA relative to UGCAUGU |
| B18 | 0.0656 KA relative to UGCAUGU |
| B19 | 0.162 KA relative to UGCAUGU |
| B20 | 0.0845 KA relative to UGCAUGU |
| B21 | 0.101 KA relative to UGCAUGU |
| B22 | 0.0881 KA relative to UGCAUGU |
| B23 | 0.174 KA relative to UGCAUGU |
| B24 | 0.169 KA relative to UGCAUGU |
| B25 | 0.0451 KA relative to UGCAUGU |
| B26 | 0.077 KA relative to UGCAUGU |
| B27 | 0.0581 KA relative to UGCAUGU |
| B28 | 0.0915 KA relative to UGCAUGU |
| B29 | 0.115 KA relative to UGCAUGU |
| B30 | 0.121 KA relative to UGCAUGU |
| B31 | 0.0704 KA relative to UGCAUGU |
